{
  "sequences": {"note": "Protein sequences, listed by entry. Tags and fused reporters are not part of them. Lines headed by an entry give the natural chain unless they say otherwise; changes in a name come on top.", "UniProt P19525": "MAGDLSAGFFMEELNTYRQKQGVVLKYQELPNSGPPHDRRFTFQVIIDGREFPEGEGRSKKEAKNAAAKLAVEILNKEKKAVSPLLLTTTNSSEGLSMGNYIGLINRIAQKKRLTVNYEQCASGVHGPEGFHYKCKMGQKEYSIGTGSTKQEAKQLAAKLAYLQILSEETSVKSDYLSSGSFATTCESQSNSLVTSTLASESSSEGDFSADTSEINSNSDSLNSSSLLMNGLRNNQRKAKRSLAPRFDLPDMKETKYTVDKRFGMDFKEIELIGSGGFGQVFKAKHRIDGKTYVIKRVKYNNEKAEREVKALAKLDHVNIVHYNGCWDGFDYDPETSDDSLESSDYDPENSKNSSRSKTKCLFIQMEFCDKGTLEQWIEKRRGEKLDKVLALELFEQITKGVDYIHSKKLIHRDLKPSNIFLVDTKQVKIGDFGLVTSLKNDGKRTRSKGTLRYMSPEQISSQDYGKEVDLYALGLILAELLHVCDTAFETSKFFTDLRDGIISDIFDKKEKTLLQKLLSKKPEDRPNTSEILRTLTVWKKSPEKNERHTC", "UniProt P19474": "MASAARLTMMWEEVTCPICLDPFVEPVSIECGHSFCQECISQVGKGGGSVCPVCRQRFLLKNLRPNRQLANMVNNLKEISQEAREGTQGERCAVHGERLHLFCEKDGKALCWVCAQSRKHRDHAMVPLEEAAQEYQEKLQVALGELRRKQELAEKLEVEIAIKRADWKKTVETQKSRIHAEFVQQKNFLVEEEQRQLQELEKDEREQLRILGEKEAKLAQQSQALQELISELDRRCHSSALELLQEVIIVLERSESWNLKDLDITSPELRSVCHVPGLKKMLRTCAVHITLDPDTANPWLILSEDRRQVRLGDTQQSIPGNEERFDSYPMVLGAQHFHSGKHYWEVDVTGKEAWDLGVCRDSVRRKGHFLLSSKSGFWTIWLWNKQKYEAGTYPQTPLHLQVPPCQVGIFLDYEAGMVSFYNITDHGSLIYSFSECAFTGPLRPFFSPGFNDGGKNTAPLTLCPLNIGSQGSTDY", "UniProt P05198": "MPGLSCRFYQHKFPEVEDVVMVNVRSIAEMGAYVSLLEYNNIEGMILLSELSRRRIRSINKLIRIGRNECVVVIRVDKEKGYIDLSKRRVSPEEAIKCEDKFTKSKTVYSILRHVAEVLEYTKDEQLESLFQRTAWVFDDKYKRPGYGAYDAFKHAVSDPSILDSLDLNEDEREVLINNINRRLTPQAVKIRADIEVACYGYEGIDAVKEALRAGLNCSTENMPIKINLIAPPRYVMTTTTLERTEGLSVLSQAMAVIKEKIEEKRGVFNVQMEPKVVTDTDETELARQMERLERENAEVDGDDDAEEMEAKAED", "UniProt P62136": "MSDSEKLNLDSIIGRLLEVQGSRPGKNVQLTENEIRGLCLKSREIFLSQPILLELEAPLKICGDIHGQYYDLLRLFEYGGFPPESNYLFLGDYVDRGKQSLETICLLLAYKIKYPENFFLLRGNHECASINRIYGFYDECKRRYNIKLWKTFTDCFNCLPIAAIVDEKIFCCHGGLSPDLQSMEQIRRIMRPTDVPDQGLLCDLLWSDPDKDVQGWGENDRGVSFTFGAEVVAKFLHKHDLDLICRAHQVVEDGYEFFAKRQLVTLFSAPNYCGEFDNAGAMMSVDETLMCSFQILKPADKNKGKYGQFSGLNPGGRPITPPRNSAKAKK"},
  "source": "paper PMC10310049",
  "key": {"[1]": {"biological_target": "Flag-tagged PKR (protein kinase R, dsRNA-dependent protein kinase), from p3xFlag-CMV-PKR (human (cDNA from HLCZ01 cells)) (UniProt P19525)", "test": "co-IP; HEK293T cells co-transfected with tagged constructs for 48 h; IP Lysis Buffer; immunoprecipitation with anti-Flag antibody and Protein G Agarose; blots with anti-V5 or anti-Myc"}, "[2]": {"biological_target": "TRIM21, endogenous in A549 cells (human (endogenous in A549)) (UniProt P19474)", "test": "co-IP"}, "[3]": {"biological_target": "Flag-tagged TRIM21, from p3xFlag-CMV-TRIM21 (human (cDNA from HLCZ01 cells)) (UniProt P19474)", "test": "co-IP; HEK293T cells co-transfected with tagged constructs for 48 h; IP Lysis Buffer; immunoprecipitation with anti-Flag antibody and Protein G Agarose; blots with anti-V5 or anti-Myc"}, "[4]": {"biological_target": "PKR (protein kinase R), endogenous in A549 cells (human (endogenous in A549)) (UniProt P19525)", "test": "co-IP"}, "[5]": {"biological_target": "GST-TRIM21 protein purified from bacteria (human (cDNA from HLCZ01 cells)) (UniProt P19474)", "test": "pull-down; both purified"}},
  "note": "Results are given in words; binding and its absence hold for the method and conditions named. For part of these data: In cells and extracts the contact can be indirect. Some binding calls cover weakened binding; strength is not graded here.",
  "data": [
    {"substance": "V5-tagged TRIM21, from pcDNA3.1a-TRIM21 (from UniProt P19474 1-475)", "values": [
      {"measurement": "binding", "setting": "[1]", "value": "binds"}
    ]},
    {"substance": "PKR (protein kinase R), endogenous in A549 cells (from UniProt P19525 1-551)", "values": [
      {"measurement": "binding", "setting": "[2]", "value": "binds"}
    ]},
    {"substance": "V5-tagged eIF2α (α-subunit of eukaryotic translation initiation factor 2), from pcDNA3.1a-eIF2α (from UniProt P05198 1-315)", "values": [
      {"measurement": "binding", "setting": "[3]", "value": "no binding"}
    ]},
    {"substance": "Myc-tagged PP1α (serine/threonine protein phosphatase type 1 alpha), from pCMV-N-Myc-PP1α (from UniProt P62136 1-330)", "values": [
      {"measurement": "binding", "setting": "[3]", "value": "binds"},
      {"measurement": "binding", "setting": "[1]", "value": "binds"}
    ]},
    {"substance": "Flag-PP1α-K60R, from lentivirus, in PP1α-silenced A549 cells (from UniProt P62136 1-330)", "values": [
      {"measurement": "binding", "setting": "[4]", "value": "no binding"}
    ]},
    {"substance": "Flag-PP1α protein purified from bacteria (from UniProt P62136 1-330)", "values": [
      {"measurement": "binding", "setting": "[5]", "value": "binds"}
    ]},
    {"substance": "PP1α, endogenous in A549 cells (from UniProt P62136 1-330)", "values": [
      {"measurement": "binding", "setting": "[2]", "value": "binds"}
    ]},
    {"substance": "Flag-PP1α-WT, from lentivirus, in PP1α-silenced A549 cells (from UniProt P62136 1-330)", "values": [
      {"measurement": "binding", "setting": "[4]", "value": "binds"}
    ]}
  ]
}
